# In all, about 310,000 compounds went through this assay and about 14,000 (4.5%) showed an effect of 50% or more. The effect is printed as a negative number. This is one part of the list.
# Molecular target: human ether-à-go-go-related gene (hERG) potassium channel (human, UniProt Q12809)
# Assay: primary screen, population patch clamp on CHO cells stably expressing hERG
# 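Note: peak tail current of the secondary pulse compared with the same well before compound.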
# human ether-à-go-go-related gene (hERG) potassium channel, sequence (Q12809 whole entry, looked up): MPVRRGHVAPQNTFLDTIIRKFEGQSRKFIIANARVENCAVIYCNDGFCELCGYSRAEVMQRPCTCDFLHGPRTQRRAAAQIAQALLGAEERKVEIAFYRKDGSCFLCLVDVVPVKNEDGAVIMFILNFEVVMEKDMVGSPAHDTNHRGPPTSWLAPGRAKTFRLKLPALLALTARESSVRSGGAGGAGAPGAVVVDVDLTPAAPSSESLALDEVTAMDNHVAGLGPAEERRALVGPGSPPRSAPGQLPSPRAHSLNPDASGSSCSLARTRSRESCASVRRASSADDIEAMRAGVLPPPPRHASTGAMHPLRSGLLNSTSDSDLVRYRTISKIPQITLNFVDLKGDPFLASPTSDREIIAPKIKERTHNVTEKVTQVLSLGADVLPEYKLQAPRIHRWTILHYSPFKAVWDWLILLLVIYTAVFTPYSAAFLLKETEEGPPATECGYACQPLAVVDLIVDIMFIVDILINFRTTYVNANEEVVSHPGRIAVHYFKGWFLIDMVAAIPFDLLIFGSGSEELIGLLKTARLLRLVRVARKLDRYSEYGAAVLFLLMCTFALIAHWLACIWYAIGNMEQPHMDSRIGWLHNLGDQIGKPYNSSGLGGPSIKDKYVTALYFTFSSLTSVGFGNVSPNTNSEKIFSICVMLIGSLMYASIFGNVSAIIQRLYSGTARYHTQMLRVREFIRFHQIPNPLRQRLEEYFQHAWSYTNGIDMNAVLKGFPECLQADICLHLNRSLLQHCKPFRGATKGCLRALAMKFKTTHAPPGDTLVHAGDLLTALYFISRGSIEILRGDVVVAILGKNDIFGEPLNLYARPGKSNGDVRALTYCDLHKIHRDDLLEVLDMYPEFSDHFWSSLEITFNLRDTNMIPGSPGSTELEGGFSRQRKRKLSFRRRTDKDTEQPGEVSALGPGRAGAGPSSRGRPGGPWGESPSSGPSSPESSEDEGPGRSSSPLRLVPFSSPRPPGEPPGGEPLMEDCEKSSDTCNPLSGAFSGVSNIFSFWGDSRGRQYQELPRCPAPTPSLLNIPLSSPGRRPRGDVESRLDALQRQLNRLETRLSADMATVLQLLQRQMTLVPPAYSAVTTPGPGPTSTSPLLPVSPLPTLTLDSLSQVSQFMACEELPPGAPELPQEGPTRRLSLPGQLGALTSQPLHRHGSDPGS
row,Structure (SMILES),"hERG current change (%, negative = inhibition) at 10uM [%]"
1,COCCN1C(=O)c2ccc(C(=O)NCc3cccnc3)cc2C1=O,5.99
2,CC(=O)c1c(C)[nH]c(C(=O)NCCCN2CCCC2)c1C,1.85
3,CCOC(=O)C1CCCCN1Cc1cccc(Oc2ccccc2)c1 (centres unmarked),-3.31
4,N#Cc1c(NC(=O)CSc2nc(N)cc(=O)[nH]2)sc2c1CCCC2,31.5
5,O=C(Nc1cc(Cl)ccc1-n1cncn1)c1cccc(S(=O)(=O)N2CCOCC2)c1,-61.9
6,COc1ccc(C(=O)NC(=S)Nc2nnn(C)n2)cc1,18.6
7,Cc1ccc(S(=O)(=O)N2CCOC2CNC(=O)C(=O)NCc2ccc3c(c2)OCO3)cc1 (centres unmarked),-4.16
8,Cc1noc(C)c1CSCC(=O)Nc1nnc(CC(C)C)s1,-21.3
9,COc1ccccc1NC(=O)N1CCCC1C(=O)Nc1ccc(NC(C)=O)cc1 (centres unmarked),12.9
10,CCOC(=O)c1c(C)[nH]c(C(=O)COC(=O)/C=C/c2ccc(OCC#N)c(OC)c2)c1C,9.14
11,Cc1cc(C)cc(NC(=S)NC(=O)C2CC2)c1,3.72
12,Cc1c(NC(C)c2cc(Cl)ccc2O)c(=O)n(-c2ccccc2)n1C (centres unmarked),-7.85
13,Cc1ccc(OCC(=O)c2c(N)n(C)c(=O)n(C)c2=O)c([N+](=O)[O-])n1,-8.05
14,COc1cc(N=Nc2ccccc2C(=O)O)ccc1O,-3.28
15,O=C(NC1CCCC1)c1cccc2c1C(=O)c1ccc(N3CCCCC3)cc1S2(=O)=O,-18.1
16,CC(=O)Nc1ccc(S(=O)(=O)NCCC(=O)Nc2cccc(Cl)c2)cc1,8.56
17,CCc1cc2c(=O)nc3n(c2s1)Cc1ccccc1/C3=C(/O)c1cccc([N+](=O)[O-])c1,-4.6
18,O=C1CC(=O)C(n2cncn2)C(c2c(F)cccc2Cl)C1 (centres unmarked),-1.83
19,CSc1nc(N(C)NC(=O)c2ccc(F)cc2)c2ccccc2n1,3.42
20,COCCCC1CCN(C(=O)C2CCC(=O)N(CCc3cccc(F)c3)C2)CC1 (centres unmarked),-9.75
21,COc1ccccc1-c1nnc(SCC(=O)NCc2c(C)c(Cl)cc(C(C)C)c2O)o1,7.46
22,COc1ccc(NC(=O)c2cccc(S(=O)(=O)N3CCN(c4ccccc4)CC3)c2)c(OC)c1,-20.8

row,Structure (SMILES),"hERG current change (%, negative = inhibition) at 10uM [%]"
1,Cc1cccc(C)c1OCC(=O)NNC(=O)CNC(=O)c1ccc(OC(F)F)cc1,-23.7
2,CCC(=O)N(CCc1ccccc1)Cc1cc2cccc(C)c2[nH]c1=O,-14.4
3,CCN(CC)c1ccc(/C=N\NC(=O)c2cccc3cc[nH]c23)cc1,16.7
4,C[C@]12CS(=O)(=O)C[C@H]1SC(=S)N2c1ccccc1,-0.916
5,Cc1ccc(SCC(=O)OCC(=O)NC(C)c2ccc(Br)cc2)cc1 (centres unmarked),-5.53
6,CC1CN(C2=NC(=O)/C(=C3/C(=O)N(Cc4ccc(F)cc4)c4ccccc43)S2)CC(C)O1 (centres unmarked),17.2
7,CC1(C)C(c2cccs2)=NC(c2ccccc2)N1O (centres unmarked),8.83
8,O=C(NC(=S)NC1CCS(=O)(=O)C1)c1ccccc1 (centres unmarked),14.6
9,CC1CCN(C(=O)c2cc(S(=O)(=O)N3CCCCC3)c[nH]2)CC1,19.9
10,COC(=O)C1=C(c2cccc(OCc3ccccc3)c2)C[C@@H]2CC[C@H]1N2C(=O)NCCN1CCOCC1,-9.46
11,O=C(Nc1ccc(S(=O)(=O)Nc2cnc3ccccc3n2)cc1)c1cc(F)c(F)cc1Cl,-5.68
12,O=C(NCc1cccnc1)c1ccc(-c2ccc(Cl)cc2)o1,-37.1
13,S=C(Nc1ccc2nsnc2c1)N1CCCCCC1,9.02
14,NCCCC[C@H]1CN=C(N)N1CC1CCCCC1,21.9
15,CC(C)c1ccccc1OCC(O)CN(CC(O)COc1cccc2ccccc12)C(C)C (centres unmarked),0.448
16,NC(=O)CN1C2CCC1CC(NC(=O)C1CC1)C2 (centres unmarked),14.7
17,CCOC(=O)Cn1cnc2c(sc3nc(C)cc(C)c32)c1=O,4.82
18,O=S(=O)(NCCS(=O)(=O)N1CCN(c2ccccc2)CC1)c1ccccc1,13.7
19,O=C(CCC1CCCN(C2C3CC4CC(C3)CC2C4)C1)NCc1ccc(F)c(F)c1 (centres unmarked),-33.5
20,CCOc1ccc(-c2nnc3ccc(SC(C)C)nn23)cc1,-6.89
21,Cc1cc(SCC(=O)NC(=O)NCc2ccco2)nc2ccccc12,-1.42
22,Cc1ccc(C(=O)N2CCN(c3ncccn3)CC2)cc1NC1=NC2CS(=O)(=O)CC2S1 (centres unmarked),5.37

# From PMC4336329 (PLoS ONE, 2015)
